Some of the results follow.

The assay has as its system PF3D7_0420300 AP2 domain 1 (GST-tagged). Kind of assay: gcPBM binding intensity (ln(normalized median fluorescence intensity)); higher = stronger DNA binding. The essentials:
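GST-fused DNA-binding domains of P. falciparum, expressed in E. coli, were applied at about 25 μg on average for 1 h to an Agilent 4 × 180k array of primer-extended double-stranded 36-bp intergenic genomic probes and negative controls. Binding intensity is the highest Masliner-normalised natural-log median intensity across replicate spots of either probe orientation, measured with Alexa488 anti-GST antibody and a 488 nm scan.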
“ATATGAGAGAATAAAACACACAAAAAAAAAAAAAAA [CACACA_site2865]”: the “gcPBM binding intensity (ln)” value was found to be 9.22.

Consider “TAATAATCAAGTTAACGTACAAAATCATCTATAGAA [XGTACX_site5921]”, for which the “gcPBM binding intensity (ln)” value worked out at 9.39.

Consider TTATATAGGCAGATGGTGCATCTATTTATAAGCAAC, for which the “gcPBM binding intensity (ln)” value came out at 9.16.

As to “AAAAATTAAAAGAAAATACACACCTGTGGGTGCTTA [CACACA_site1988]”, the “gcPBM binding intensity (ln)” value was 9.13.

As to TATTTTTTTTGTTAGGTGCATTTACATTTATTTTTA, the “gcPBM binding intensity (ln)” value turned out to be 9.49.

As to “TGTATGTATTTTCAATGTACATAAAAAAAAAAAAAA [XGTACX_site4397]”, the “gcPBM binding intensity (ln)” value was determined as 8.78.

Consider “AAAAAAAAAAGTTCTACACACACAAAAAAATATTTT [CACACA_site8725]”, for which the “gcPBM binding intensity (ln)” value worked out at 9.92.

For “AAATTAATACATTATTGTACTTTTCATGTGCAGAAA [XGTACX_site8284]”, the “gcPBM binding intensity (ln)” value amounted to 9.03.

On to “TAATTCGCATTTTATACACACATTCGAACCTTTTTT [CACACA_site7549]”, for which the “gcPBM binding intensity (ln)” value stood at 9.76.

Regarding “CATATTACATTAAATTGTACATATATATATATATAT [XGTACX_site3295]”, the “gcPBM binding intensity (ln)” value amounted to 9.2.

For the sequence “CGGATGAATATATATGCACACATCTTTTGTAAAAAT [CACACA_site3190]”, the “gcPBM binding intensity (ln)” value worked out at 9.27.

As for “TGTATAAATATATGCACACATATATATATTTATATA [CACACA_site3473]”, the “gcPBM binding intensity (ln)” value was 9.16.

Regarding “GAGAAAAAAAAAAAAAAACACACGGTACATTCAAAG [CACACA_site1767]”, the “gcPBM binding intensity (ln)” value worked out at 9.52.

“TCAATAAATGAATATGCATGCACGCTCTTTAGAGAT [TGCATGCA_site553]”: the “gcPBM binding intensity (ln)” value stood at 9.23.

Regarding “AAAAAAAAAAAAAAATGTACATATATATAAATATAT [XGTACX_site6768]”, the “gcPBM binding intensity (ln)” value amounted to 9.1.

Take “TATGTAATGTTTACAACACACAAATTATAAATACAA [CACACA_site1771]”: the “gcPBM binding intensity (ln)” value was found to be 9.31.

Turning to “ATATATATATATATATGTACATATTTTTATTTATAC [XGTACX_site2858]”, the “gcPBM binding intensity (ln)” value was determined as 9.12.

Regarding “TATTTATATGTATATACATGCACATATATATGAAAC [TGCATGCA_site1005]”, the “gcPBM binding intensity (ln)” value amounted to 9.33.

Regarding “CTATTTTATATGTGCACACATATACTCAGACAAATA [CACACA_site4761]”, the “gcPBM binding intensity (ln)” value stood at 9.46.

As for “ACCTATATACTAAATGCACACTTATATATTTATATA [CACACA_site5371]”, the “gcPBM binding intensity (ln)” value worked out at 9.58.

In the case of “AACATACACATATACACACACACATATATACCTATA [CACACA_site6643]”, the “gcPBM binding intensity (ln)” value came out at 10.4.

With “AAGAAAAAAAAAATTACACACTGCGGACATACACAA [CACACA_site4838]”, the “gcPBM binding intensity (ln)” value amounted to 9.72.

Consider “TCAATTTTACTTGTTTGTACATAAAATAATAAGGTT [XGTACX_site3732]”, for which the “gcPBM binding intensity (ln)” value amounted to 9.07.

Regarding “ATATTTTGTTTTTGTTCTTTTTTTTTCTTTTTTTTT [CACACA_negctrl_site1342]”, the “gcPBM binding intensity (ln)” value was 9.87.

As to “ACTTTGCTCTACAATGCATGCTCATTTAACAAGGCA [TGCATGCA_site676]”, the “gcPBM binding intensity (ln)” value was 9.04.

As to “ATATCTACTATACAACTGAGTGTAGAAAAATTAAAC [CACACA_negctrl_site1211]”, the “gcPBM binding intensity (ln)” value was determined as 9.42.

As to “TATATTAAATGAAACAAACACACATAGCCTTTAAAT [CACACA_site1559]”, the “gcPBM binding intensity (ln)” value was found to be 9.68.

As for “ATATTTATAAATTGCACACAAATAATAACATTCTAT [CACACA_site2357]”, the “gcPBM binding intensity (ln)” value came out at 9.44.

For “TATTATTATTATGGTAGTACATGTAGGTTATTAAAA [XGTACX_site5742]”, the “gcPBM binding intensity (ln)” value worked out at 9.26.

As for “AATTGGGAAGGACATGCATGAGAAATTAATATTGCA [TGCATGCA_site424]”, the “gcPBM binding intensity (ln)” value is 9.32.

Regarding “AAAAATAAATATATATGTACACATATGTATACAATA [XGTACX_site4692]”, the “gcPBM binding intensity (ln)” value was found to be 9.28.

Turning to “GAAATAAATATAATATATATATATATATATATATGT [TGCATGCA_negctrl_site216]”, the “gcPBM binding intensity (ln)” value is 9.09.

Take “GGTATACACAGACATGCATGTAATTATATATAGGGA [TGCATGCA_site83]”: the “gcPBM binding intensity (ln)” value amounted to 9.58.

With TTACAACATGAAAATGTGCACATATATATATATATA, the “gcPBM binding intensity (ln)” value came to 9.25.

In the case of “TCGCCCTACAATTTGTTTATATATTAAATAAAATTT [CACACA_negctrl_site883]”, the “gcPBM binding intensity (ln)” value stood at 9.26.

“AATATATTTAATCATACACACATTTATGTACCTATA [CACACA_site1718]”: the “gcPBM binding intensity (ln)” value came to 9.63.

With “TGAAATTCCATAAAATGTACATATTAGTTTAATTCA [XGTACX_site4031]”, the “gcPBM binding intensity (ln)” value stood at 8.96.

On to CATCATCTTTTAAAGGTGCATAATAATATTGTTAAT, for which the “gcPBM binding intensity (ln)” value was found to be 9.06.

For “GTCTATTATTTTTGAAGTACAAAAATTTTAGTTAAA [XGTACX_site4708]”, the “gcPBM binding intensity (ln)” value turned out to be 9.12.

For “AAAGTAAAAAATCATAGTACACATTTAAATATATAT [XGTACX_site2323]”, the “gcPBM binding intensity (ln)” value is 9.56.

“TAATATATCAAATGAAGTACTCACATATACATAATA [XGTACX_site6051]”: the “gcPBM binding intensity (ln)” value was determined as 9.3.

On to “GGTATATATTTATAATGTACATATTCATATATATAA [XGTACX_site3291]”, for which the “gcPBM binding intensity (ln)” value was 9.23.

Turning to “TTTTTTAAATTATGTAGTACGATTCATTTTTTATAA [XGTACX_site1101]”, the “gcPBM binding intensity (ln)” value was determined as 8.98.

Turning to “AATATCTTAGTGGATACACACATATAAATGTGGATT [CACACA_site485]”, the “gcPBM binding intensity (ln)” value came out at 9.31.

With “AAGATTTTCCTTGATAGTACACTTATGAAAATTTGT [XGTACX_site3047]”, the “gcPBM binding intensity (ln)” value amounted to 9.11.

(Values after the supplement of paper PMC11417369.)
